Key:
Format in all cases: in vivo
Botrytis cinerea = assay: Test Example B: Gray mold on tomato; details: for Test B (control value class, gray mold on tomato): in vivo
Excerpt: [Test Example B] Gray Mold on Tomato
Seeds of a test plant (tomato variety: Oogata Fukuju) were planted followed by cultivating until three to five first leaves (true leaves) appeared.

Alternaia brassicicola = assay: Test Example C: Alternaria sooty spot on cabbage; details: for Test C (control value class, Alternaria sooty spot on cabbage): in vivo
Excerpt: [Test Example C] Alternaria Sooty Spot on Cabbage
Seeds of a test plant (cabbage variety: Shikidori) were planted followed by cultivating until the cotyledons extended.

[1] = test system: Blumeria graminis f sp. hordei; assay: Test Example D: Powdery mildew on barley; details: for Test D (control value class, powdery mildew on barley): in vivo
Excerpt: [Test Example D] Powdery Mildew on Barley
After the sprayed dilutions were dried, conidia of Blumeria graminis f sp. hordei were inoculated to the plants by shaking off.

Puccinia recondita = assay: Test Example E: Brown rust on wheat; details: for Test E (control value class, brown rust on wheat): in vivo
Excerpt: [Test Example E] Brown Rust on Wheat

Plasmopara viticola = assay: Test Example G: Downy mildew on vine; details: for Test G (control value class): 250 ppm spray; for Test G (control value class, downy mildew on vine): 250 ppm, sprayed 2.5 ml/pot before inoculation
Excerpt: [Test Example G] Downy Mildew on Vine
Seeds of a test plant (grape variety: Neomuscat) were planted followed by cultivating until three to four first leaves appeared. […] After the sprayed dilutions were dried, a zoosporangia suspension (1-2×10^4 zoosporangia/ml) of Plasmopara viticola was inoculated to the plants by spraying.

[2] = gray mold on tomato, Botrytis cinerea, 250 ppm spray
[3] = Alternaria sooty spot on cabbage, 250 ppm spray
[4] = powdery mildew on barley, 250 ppm spray
[5] = brown rust on wheat, Puccinia recondita, 250 ppm spray
[6] = downy mildew on vine, Plasmopara viticola, 7-10 days after inoculation
[7] = evaluated 7-10 days after inoculation
[8] = Gray mold on tomato, control value=100{1-(n/3)}
[9] = Alternaria sooty spot on cabbage, control value=100{1-(n/3)}
[10] = Powdery mildew on barley, control value=100{1-(n/3)}
[11] = Brown rust on wheat, control value=100{1-(n/3)}
[12] = Downy mildew on vine, 2.5 ml/pot, evaluated 7-10 days after inoculation

Structure (SMILES) | Test B (control value class) (Botrytis cinerea; [2]) | Test C (control value class) (Alternaia brassicicola; [3]) | Test D (control value class) [1, 4] | Test E (control value class) (Puccinia recondita; [5]) | Test G (control value class) (Plasmopara viticola; [6]) | Test B (control value class, gray mold on tomato) (Botrytis cinerea) | Test C (control value class, Alternaria sooty spot on cabbage) (Alternaia brassicicola) | Test D (control value class, powdery mildew on barley) [1] | Test E (control value class, brown rust on wheat) (Puccinia recondita) | Test G (control value class, downy mildew on vine) (Plasmopara viticola; [7]) | also measured
CCn1c(-c2c(F)cccc2F)c(-c2cc(OC)ccc2Cl)cc(SC)c1=O [Compound 375] | H (H shows more than 50% of control values) | H (H shows more than 50% of control values) | L (L shows 50% or less of control values) | H (H shows more than 50% of control values) | H (H shows more than 50% of control values) | – | – | – | – | – | –
COc1cc(F)c(-c2c(-c3cccc(F)c3Cl)cc(Cl)c(=O)n2C)c(F)c1 [Compound 504] | H (H shows more than 50% of control values) | H (H shows more than 50% of control values) | H (H shows more than 50% of control values) | H (H shows more than 50% of control values) | H (H shows more than 50% of control values) | – | – | – | – | – | –
CCOc1cc(F)c(-c2c(-c3cccc(OC)c3Cl)ccc(=O)n2CC)c(F)c1 [Compound 634] | – | – | – | – | – | H (H shows more than 50% of control values) | H (H shows more than 50% of control values) | H (H shows more than 50% of control values) | H (H shows more than 50% of control values) | H (H shows more than 50% of control values) | –
CCn1c(-c2c(F)cc(F)cc2F)c(-c2cc(OC)ccc2Cl)cc(Br)c1=O [Compound 768] | – | – | – | – | – | – | – | – | – | – | Test B (control value class) (Botrytis cinerea; [8]): H (H shows more than 50% of control values); Test C (control value class) (Alternaia brassicicola; [9]): H (H shows more than 50% of control values); Test D (control value class) [1, 10]: H (H shows more than 50% of control values); Test E (control value class) (Puccinia recondita; [11]): H (H shows more than 50% of control values); Test G (control value class) (Plasmopara viticola; [12]): H (H shows more than 50% of control values)
CCn1c(-c2c(F)cccc2F)c(-c2cccc(F)c2Cl)cc(C)c1=O [Compound 752] | – | – | – | – | – | – | – | – | – | – | Test B (control value class) (Botrytis cinerea; [8]): H (H shows more than 50% of control values); Test C (control value class) (Alternaia brassicicola; [9]): H (H shows more than 50% of control values); Test D (control value class) [1, 10]: H (H shows more than 50% of control values); Test E (control value class) (Puccinia recondita; [11]): H (H shows more than 50% of control values); Test G (control value class) (Plasmopara viticola; [12]): H (H shows more than 50% of control values)
Cn1c(-c2c(F)cccc2F)c(-c2cccc(F)c2Cl)cc(Br)c1=O [Compound 753] | – | – | – | – | – | – | – | – | – | – | Test B (control value class) (Botrytis cinerea; [8]): H (H shows more than 50% of control values); Test C (control value class) (Alternaia brassicicola; [9]): H (H shows more than 50% of control values); Test D (control value class) [1, 10]: H (H shows more than 50% of control values); Test E (control value class) (Puccinia recondita; [11]): H (H shows more than 50% of control values); Test G (control value class) (Plasmopara viticola; [12]): H (H shows more than 50% of control values)
COc1cc(F)c(-c2c(-c3ccccc3Cl)cc(Br)c(=O)n2C)c(F)c1 [Compound 732] | – | – | – | – | – | H (H shows more than 50% of control values) | H (H shows more than 50% of control values) | L (L shows 50% or less of control values) | H (H shows more than 50% of control values) | L (L shows 50% or less of control values) | –
CCn1c(-c2c(F)cc(F)cc2F)c(-c2cccc(F)c2F)ccc1=O [Compound 558] | H (H shows more than 50% of control values) | H (H shows more than 50% of control values) | H (H shows more than 50% of control values) | H (H shows more than 50% of control values) | H (H shows more than 50% of control values) | – | – | – | – | – | –
CCn1c(-c2c(F)cc(F)cc2F)c(-c2ccccc2Cl)cc(Br)c1=O [Compound 683] | – | – | – | – | – | H (H shows more than 50% of control values) | H (H shows more than 50% of control values) | H (H shows more than 50% of control values) | H (H shows more than 50% of control values) | L (L shows 50% or less of control values) | –
CCn1c(-c2c(F)cc(F)cc2F)c(-c2ccccc2)ccc1=O [Compound 762] | – | – | – | – | – | – | – | – | – | – | Test B (control value class) (Botrytis cinerea; [8]): H (H shows more than 50% of control values); Test C (control value class) (Alternaia brassicicola; [9]): H (H shows more than 50% of control values); Test D (control value class) [1, 10]: H (H shows more than 50% of control values); Test E (control value class) (Puccinia recondita; [11]): H (H shows more than 50% of control values); Test G (control value class) (Plasmopara viticola; [12]): H (H shows more than 50% of control values)
Cn1c(-c2c(F)cc(F)cc2F)c(-c2cc(F)cc(F)c2F)ccc1=O [Compound 466] | H (H shows more than 50% of control values) | H (H shows more than 50% of control values) | H (H shows more than 50% of control values) | H (H shows more than 50% of control values) | L (L shows 50% or less of control values) | – | – | – | – | – | –
CCN1C(=O)CCC(c2ccccc2F)=C1c1c(F)cc(F)cc1F [Compound 514] | H (H shows more than 50% of control values) | H (H shows more than 50% of control values) | H (H shows more than 50% of control values) | H (H shows more than 50% of control values) | L (L shows 50% or less of control values) | – | – | – | – | – | –
CCn1c(-c2c(F)cc(F)cc2F)c(-c2ccccc2F)cc(Br)c1=O [Compound 532] | H (H shows more than 50% of control values) | H (H shows more than 50% of control values) | H (H shows more than 50% of control values) | H (H shows more than 50% of control values) | H (H shows more than 50% of control values) | – | – | – | – | – | –
COc1cc(F)c(-c2c(-c3cc(F)c(F)cc3F)ccc(=O)n2C)c(F)c1 [Compound 654] | – | – | – | – | – | H (H shows more than 50% of control values) | H (H shows more than 50% of control values) | H (H shows more than 50% of control values) | H (H shows more than 50% of control values) | L (L shows 50% or less of control values) | –
CCCCn1c(-c2c(F)cccc2F)c(-c2cc(OC)ccc2Cl)cc(Cl)c1=O [Compound 395] | L (L shows 50% or less of control values) | L (L shows 50% or less of control values) | L (L shows 50% or less of control values) | L (L shows 50% or less of control values) | L (L shows 50% or less of control values) | – | – | – | – | – | –
COc1cc(F)c(-c2c(-c3cc(F)cc(F)c3)cc(Br)c(=O)n2C)c(F)c1 [Compound 808] | – | – | – | – | – | – | – | – | – | – | Test B (control value class) (Botrytis cinerea; [8]): H (H shows more than 50% of control values); Test C (control value class) (Alternaia brassicicola; [9]): H (H shows more than 50% of control values); Test D (control value class) [1, 10]: L (L shows 50% or less of control values); Test E (control value class) (Puccinia recondita; [11]): H (H shows more than 50% of control values); Test G (control value class) (Plasmopara viticola; [12]): L (L shows 50% or less of control values)
CCn1c(-c2c(F)cccc2Cl)c(-c2cc(OC)cc(OC)c2)ccc1=O [Compound 150] | – | – | – | – | – | – | – | – | – | – | Test B control value (Botrytis cinerea; Gray mold on tomato): H (H shows more than 50% of control values); Test C control value (Alternaia brassicicola; Alternaria sooty spot on cabbage): L (L shows 50% or less of control values); Test D control value ([1]; Powdery mildew on barley): L (L shows 50% or less of control values); Test E control value (Puccinia recondita; Brown rust on wheat): H (H shows more than 50% of control values); Test G control value (Plasmopara viticola; Downy mildew on vine, 250 ppm sprayed before inoculation, 7-10 days after inoculation): L (L shows 50% or less of control values)
O=c1ccc(-c2cc(F)cc(F)c2Cl)c(-c2c(F)cc(F)cc2F)n1CC(F)F [Compound 607] | – | – | – | – | – | H (H shows more than 50% of control values) | H (H shows more than 50% of control values) | H (H shows more than 50% of control values) | H (H shows more than 50% of control values) | L (L shows 50% or less of control values) | –
CCn1c(-c2c(F)cc(OC)cc2F)c(-c2ccc(F)cc2Cl)cc(C)c1=O [Compound 599] | – | – | – | – | – | H (H shows more than 50% of control values) | H (H shows more than 50% of control values) | H (H shows more than 50% of control values) | H (H shows more than 50% of control values) | H (H shows more than 50% of control values) | –
